Assay results reported in the supplement of paper PMC6531468.
Some of the results follow. Read counts after selection give these values, which scatter widely. Scores sum up all selected molecules that hold the word; the word was not tested alone.

Target: IMP3 full-length (UniProt O00425)
Assay: 6-mer SELEX enrichment z-score vs GST control; IMP3 is the RNA-binding protein IGF2BP3; higher = more enriched by binding
Conditions: construct: FL IMP3 (1-579); SELEX round: R4
Method: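 SELEX-seq with GST-tagged full-length IMP3 and an N40 RNA pool, round 4. Each 6-mer is scored as an enrichment z-score of sequence tags containing it, normalised to the matching GST SELEX round. RNA written as DNA (T = U).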

Sequence of UniProt O00425 (O00425 whole entry): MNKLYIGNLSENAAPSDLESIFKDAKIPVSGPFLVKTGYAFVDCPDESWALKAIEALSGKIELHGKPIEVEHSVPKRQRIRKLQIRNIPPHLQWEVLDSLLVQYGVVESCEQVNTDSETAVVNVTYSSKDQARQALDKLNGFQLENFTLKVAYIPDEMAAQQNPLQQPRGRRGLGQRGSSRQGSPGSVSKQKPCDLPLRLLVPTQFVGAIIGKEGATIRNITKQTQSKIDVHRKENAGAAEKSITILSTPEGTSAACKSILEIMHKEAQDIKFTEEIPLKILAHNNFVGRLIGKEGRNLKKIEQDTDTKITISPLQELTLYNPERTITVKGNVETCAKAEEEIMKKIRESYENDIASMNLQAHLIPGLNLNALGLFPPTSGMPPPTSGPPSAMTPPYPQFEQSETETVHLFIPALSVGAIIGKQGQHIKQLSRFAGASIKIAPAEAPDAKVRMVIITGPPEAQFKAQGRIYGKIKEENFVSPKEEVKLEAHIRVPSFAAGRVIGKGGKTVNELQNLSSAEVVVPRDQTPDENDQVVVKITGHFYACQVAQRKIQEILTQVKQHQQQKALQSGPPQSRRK

Sequence | 6-mer SELEX enrichment z-score
GTCAAG | 0.146
TATCGG | 0.277
TAACAG | 0.529
GAAGCC | -0.71
TCTAAC | -0.398
GACTTC | -0.504
CCGCTC | 0.267
ACGACT | -0.869
CTGACG | -0.865
TAGAAG | -0.274
ACCCGC | -0.962
TAACTC | -0.539
TCCGGT | 0.19
AGATCG | 0.169
TGACGG | 0.037
AAGGCA | 1.78
ACTCAT | 0.603
CTTGGC | 0.042
GACTGG | -0.143
TTGCCT | -0.351

Sequence | 6-mer SELEX enrichment z-score
TCAGCG | -0.03
GATTAA | -0.384
ACTTAG | -0.246
ATACAT | 2.34
CAACGA | -1.15
AAATTC | -0.129
TTCCTT | 0.166
TTGCGG | 0.171
ATGTGG | 0.253
AGCGTG | -2.71
CATGAA | 0.878
GTGCGC | 0.254
AAGCAA | -0.336
TTGCGA | -0.616
AGCCGA | -0.746
TATGGC | 0.455
CGTTAG | -0.196
TATGTA | -0.031
TTCTCG | 0.072
AATGAG | -1.35
